# Results as given in PubChem BioAssay AID463173 (ICCB-Longwood Screening Facility, Harvard Medical School, 2010).
# The campaign covered roughly 52,000 compounds. About 1,700 (3.3%) were called active. Rule as the data show it: active = survival mostly below about 52% (no sharp cut-off); inactive = mostly above about 56%. The list shows a part of the results.
# Test system: Wild type
# Assay: S. aureus survival, RN4220 and DeltatarO strains – OD600, teichoic acid synthesis inhibitors, primary screen (AID 463173)
# Settings: S. aureus RN4220 wild type/DeltatarO growth, OD600, 18 h, stronger effect = lower value, screened at 18.75 µg/mL (by protocol)
row,Compound,survival
1,Cc1ccc(Cn2cc(S(=O)(=O)c3ccc(C)cc3)c(=O)c3cc(F)c(N4CCCC4)cc32)cc1,inactive: 72%
2,CCOc1cccc(NC(=O)c2ccc(F)c(S(=O)(=O)N(CC)c3cccc(C)c3)c2)c1,inactive: 82%
3,Cc1ccc(CNC(=O)C2CCN(C(=O)c3cnn(-c4ccccc4)c3-n3cccc3)CC2)cc1,inactive: 92%
4,O=C(Nc1nnc(S(=O)(=O)N2CCCCCC2)s1)c1ccccc1Br,inactive: 52%
5,COc1ccc2c(c1)CC(C(=O)NCCN1CCN(c3cccc(C)c3C)CC1)CO2 (configuration not stated),inactive: 88%
6,COc1ccc2c(c1)c1c(c(=O)n(Cc3ccccc3)c(=O)n1CC(=O)Nc1ccc(C)cc1C)n2C,active: -4%
7,CC(C)CCNC(=O)Nc1cc(C(=O)NCc2cccc(F)c2)ccc1N1CCCC1,inactive: 81%
8,O=C(C1CCN(S(=O)(=O)Cc2ccccc2)CC1)N1CCN(c2cccc(Cl)c2)CC1,inactive: 84%
9,Cc1ccc(NC(=O)C2CCCN(S(=O)(=O)c3c(C)n[nH]c3C)C2)cc1C (configuration not stated),inactive: 127%
10,CSc1cccc(NC(=O)C2CCN(S(=O)(=O)c3ccc4[nH]c5c(c4c3)CCCCC5)CC2)c1,inactive: 72%
11,CCOC(=O)c1ccc(CN(Cc2ccc(C)cc2)S(=O)(=O)c2ccc(NC(C)=O)cc2)cc1,inactive: 45%
12,Cn1c(=O)[nH]c(=O)c2c1nc1n2CCCN1c1ccccc1,inactive: 103%
13,CCn1cc2nc(SCc3ccc(F)cc3)n(Cc3ccc(Cl)cc3)c(=O)c2n1,inactive: 80%
14,CCCS(=O)(=O)N1CC(=O)N(c2ccc(Cl)cc2)C(C)(C(=O)NC2CCCC2)C1 (configuration not stated),inactive: 90%
15,COCCCNC(=O)CN1C(=O)CSc2ccc(S(=O)(=O)N3CCOCC3)cc21,inactive: 127%
16,CC(=O)Nc1ccc(Nc2nnc(-c3ccc(C)c(S(N)(=O)=O)c3)c3ccccc23)cc1,inactive: 141%
17,Cc1cc(C)cc(N(CC(=O)NCc2ccco2)C(=O)c2snc(C(N)=O)c2N)c1,inactive: 120%
18,O=C(NCc1ccc2c(c1)CCN2C(=O)c1ccccc1)c1ccco1,inactive: 87%
19,O=C(Nc1ccc(S(=O)(=O)N(Cc2ccccc2)c2ccccc2)cc1)c1ccc([N+](=O)[O-])cc1,inactive: 75%
20,Cc1ccc(NC(=O)C(=O)NCCc2csc3nc(-c4ccccc4C)nn23)cc1Cl,inactive: 82%
21,O=C(NC(=S)NC1CCSC1=O)c1ccco1 (configuration not stated),inactive: 112%
22,Cc1ccc(NC(=O)c2oc3ccc(S(=O)(=O)N4CCC5(CC4)OCCO5)cc3c2C)c(C)c1,inactive: 143%

row,Compound,survival
1,COCCn1c(SCC(=O)Nc2ccc(C(F)(F)F)cc2)nc2c([nH]c3ccccc32)c1=O,inactive: 77%
2,O=C(NCc1ccccc1Cl)c1ccc(NC(=O)N2CCSc3ncccc32)cc1,inactive: 87%
3,COc1cccc(N2CCN(C(=O)c3cc4c(=O)n(Cc5ccco5)ccc4nc3C)CC2)c1,inactive: 113%
4,COc1ccc(CCN2C(=O)C3CC=C(C)CC3C2=O)cc1OC (configuration not stated),inactive: 116%
5,CCOC(=O)/C(C#N)=C/N1CCCc2ccccc21,inactive: 111%
6,Cc1[nH]c2ccc(Cl)cc2c(=O)c1CN1CCN(C)CC1,inactive: 109%
7,Cc1ccc(OC(=O)CCC(=O)N2CCc3ccccc32)cc1,inactive: 106%
8,NCCNC(=O)c1c(O)c2cccc3c2n(c1=O)CCC3,inactive: 102%
9,CCn1c(CCNC(=O)C2CCCO2)nnc1SC (configuration not stated),inactive: 94%
10,CCC1=C(c2ccc(C)cc2)S(=O)(=O)N=C1N1CCC(C(=O)NCc2ccccc2Cl)CC1,inactive: 74%
11,Cc1ccc(C)c(N2CCN(CCCNC(=O)c3nnc(Cc4ccc(F)cc4Cl)o3)CC2)c1,inactive: 64%
12,CCOC(=O)c1cc(S(=O)(=O)N2CCN(c3ccc(F)cc3)CC2)[nH]n1,inactive: 80%
13,CCCN(CCC)CCNC(=O)C1CCCN(S(=O)(=O)c2cccc3nsnc23)C1 (configuration not stated),inactive: 77%
14,CCCCCOC(=O)c1ccc(OC(=O)c2sc3ncn(Cc4cccc(F)c4)c(=O)c3c2C)cc1,inactive: 76%
15,C=CCn1c(-c2ccccc2)c[nH]c1=S,inactive: 109%
16,COc1ccc(OC)c(NC(=O)N2CCC(CN3CCCCC3)CC2)c1,inactive: 70%
17,COc1ccc(OC)c(CNc2sc3c(c2C(=O)Nc2cc(OC)ccc2OC)CCCC3)c1,inactive: 72%
18,Cc1nc(SCc2ccc(Cl)cc2)c(C#N)c(C)c1Cl,inactive: 32%
19,CCOc1cc2[nH]c(=O)n(CCCC(=O)N3CCN(c4cccc(Cl)c4)CC3)c(=O)c2cc1OCC,inactive: 71%
20,CC(=O)N1CCCc2cc(S(=O)(=O)N3CCCC(C(=O)Nc4cccc(Cl)c4C)C3)ccc21 (configuration not stated),inactive: 76%
21,CCOC(=O)c1cnc2ccc(OCC)cc2c1Nc1cc(Cl)c(OC)cc1OC,inactive: 60%
22,CC(C)Cn1cc(C(=O)N2CCN(c3cccc(Cl)c3)CC2)c2c3ccccc3n(C)c2c1=O,inactive: 79%

row,Compound,survival
1,Cc1ccccc1N(CC(=O)NC1CCCC1)C(=O)c1csnn1,inactive: 107%
2,Cc1ccc(C)c(OC(=O)CSc2nnc(-c3ccc4c(c3)OCO4)o2)c1,inactive: 85%
3,CCOc1cc(C(=O)Nc2ccc(S(=O)(=O)Nc3cc(OC)nc(OC)n3)cc2)cc(OCC)c1OCC,inactive: 89%
4,COC(=O)c1ccc(Cn2c(SCC(=O)N(C)c3ccccc3)nc3ccccc32)cc1,inactive: 75%
5,CCCCc1ccc(NC(=O)c2ccc3c(c2)CCN3S(=O)(=O)c2ccccc2)cc1,inactive: 88%
6,O=C(CCCn1c(=O)c2ccccc2n(Cc2cccc(F)c2)c1=O)NCc1ccccc1Cl,inactive: 86%
7,O=C(Nc1ccc(S(=O)(=O)N(Cc2ccccc2)c2ccccc2)cc1)c1ccc(F)cc1,inactive: 79%
8,CCCCNC(=O)c1sc2ncccc2c1-n1cccc1,inactive: 47%
9,Nc1c(S(=O)(=O)Cc2ccccc2)sc2nc3c(cc12)CCCC3,inactive: 122%
10,O=C(CCc1ccccc1)N1CCc2c([nH]c3ccccc23)C1c1ccc(F)cc1 (configuration not stated),inactive: 85%
11,O=C(NCCCc1nc2ccccc2n1Cc1ccccc1F)c1ccco1,inactive: 92%
12,CCOC(=O)Cn1c(=O)n(-c2ccc(Cl)cc2)c2nc(-c3ccc(Cl)cc3)nc(C(N)=O)c21,inactive: 83%
13,Cc1cc2oc(C(=O)Nc3c(C)n(C)n(-c4ccccc4)c3=O)cc(=O)c2cc1C,inactive: 83%
14,COc1ccc(-c2cc(C(=O)Nc3c(C)n(C)n(-c4ccccc4)c3=O)no2)cc1,inactive: 73%
15,CN1C(=O)c2ccccc2Sc2ccc(NC(=O)c3ccc(C#N)cc3)cc21,inactive: 92%
16,COC(=O)C(CCSC)NC(=O)c1cc2c(n(-c3ccccc3)c1=O)CC(C)(C)CC2=O (configuration not stated),inactive: 69%
17,O=c1[nH]c2ccc(S(=O)(=O)Nc3ccccc3)cc2o1,inactive: 117%
18,Cc1cccc(NS(=O)(=O)c2ccc3c(c2)CCCN3C(=O)C2CCC2)c1C,inactive: 153%
19,Cc1nn(C(C)(C)C)c(OC(=O)c2c(F)cccc2F)c1Sc1ccccc1,inactive: 117%
20,COc1cc(CNc2ccc3[nH]c(=O)[nH]c3c2)cc(Cl)c1OCc1ccc(F)cc1,inactive: 87%
21,COc1ccc(NC(=O)CN(c2ccc(C)cc2)S(=O)(=O)c2cccs2)cc1,inactive: 84%
22,Cc1ccc2c(=O)cc(C(=O)Nc3nc4ccc(Cl)cc4s3)oc2c1,inactive: 65%

row,Compound,survival
1,O=C(Nc1ccc(C(=O)OCc2cc(=O)n3c4c(sc3n2)CCCC4)cc1)c1cccc(F)c1,inactive: 81%
2,Cc1cccc(C(=O)Nc2ccccc2OCc2cc(=O)n3c(C)csc3n2)c1,inactive: 90%
3,O=C(Cn1cc(S(=O)(=O)Cc2ccccc2F)c2ccccc21)NCc1ccccc1,inactive: 72%
4,Cc1csc2nc(-c3cccc(NC(=O)c4c(F)cccc4F)c3)cn12,inactive: 121%
5,COc1ccc(CCNc2nc3c(c(=O)n(C)c(=O)n3C)n2Cc2ccccc2Cl)cc1OC,inactive: 91%
6,O=C(NCCc1ccccc1)c1cc(-c2ccc(Cl)c(Cl)c2)on1,inactive: 86%
7,CCOc1ccc(Nc2c3c(nc4nncn24)CCC3)cc1,inactive: 86%
8,COc1ccc(C(=O)OCc2cc(=O)n3nc(C4CC4)sc3n2)cc1OC,inactive: 119%
9,O=C(O)C1C2C=CC3(CN(Cc4cccc(Cl)c4Cl)C(=O)C13)O2 (configuration not stated),inactive: 101%
10,COc1cc(OC)cc(N2C(=O)CSC23C(=O)Nc2ccccc23)c1 (configuration not stated),inactive: 73%
11,Cc1c(CC(=O)NCc2ccccc2Cl)c(=O)oc2cc(O)ccc12,inactive: 72%
12,Cc1cccc(-c2c3c(nc4ncnn24)-c2ccccc2C3=O)c1,inactive: 112%
13,CCOc1ccc(-c2nnc(SCC(=O)Nc3cccc(Cl)c3C)o2)cc1,inactive: 48%
14,CCCNC(=O)CSc1cn(CC(=O)N2CCCCCC2)c2ccccc12,inactive: 90%
15,Cc1ccc2nc(CN3CCN(S(=O)(=O)c4ccc(F)cc4)CC3)oc2c1,inactive: 59%
16,Cc1ccc2oc(C(=O)Nc3ccc(S(=O)(=O)Nc4nc(C)cc(C)n4)cc3)cc(=O)c2c1,inactive: 106%
17,CC(C)Oc1ccc(CNS(=O)(=O)c2ccc(-c3cc(C(F)(F)F)on3)s2)cc1,inactive: 98%
18,Cc1ccc(NC(=O)CCn2cnc3onc(-c4ccc(F)cc4)c3c2=O)c(Br)c1,inactive: 73%
19,CCC1CCCCN1C(=O)CSc1nnc(-c2cccnc2)n1-c1ccc(OC)cc1 (configuration not stated),inactive: 112%
20,CN(C)c1ccc(/C=N/c2nc3ccccc3o2)cc1,inactive: 113%
21,COc1ccc(CCNC(=O)CCn2c(=O)c3ccccc3n(Cc3ccccc3C)c2=O)cc1OC,inactive: 80%
